In PubChem BioAssay AID1362 (SRMLSC, 2008):
Some of the results follow. The main result of the screen is listed elsewhere. These columns were measured beside it and carry no call. Compounds called inactive in the main read-out are mostly missing here.

Experiment: growth inhibition of WT strain, primary screen, mitochondrial fusion inhibitor project, WT and mutant strains, chemical genetic (AID 1362); note: tested in S. cerevisiae
Settings: mitochondrial fusion phenotypic screen, at 10 µM
For `COc1ccc(S(=O)(=O)N2CC3CCCN3c3cc(C(F)(F)F)ccc32)cc1` (stereo not drawn), the inhibition was 67%.
Work on `Cc1ccc(SC(C)C(=O)Nc2ccccc2-c2ccccc2)cc1` (stereo not drawn) yielded an inhibition of -2.25%.
`Cc1cc(C)cc(NC(=O)c2ccc(Cn3nc(C)c(Cl)c3C)o2)c1` gave an inhibition of 53.4%.
Work on `O=C(CN1C(=O)COc2ccccc21)N(Cc1cccnc1)Cc1cccc(F)c1` yielded an inhibition of 6.6%.
In the case of `Cc1cc(C)nc(N2CCC(C(=O)N3CCN(c4cc(Cl)ccc4C)CC3)CC2)n1`, the inhibition is reported as 26.3%.
Compound `Cn1c(C(=O)N2CCN(c3cccc(C(F)(F)F)c3)CC2)cc2sccc21` has an inhibition of 55.6%.
Work on `O=C(NC1CCCCCC1)C(=S)NCc1ccccc1` yielded an inhibition of 36.9%.
With `CCCCOC(=O)c1ccc(NC(=O)c2ccccc2OC)cc1` the inhibition was 7.4%.
In the case of `CCc1ccc(-c2nc(CN3CCC(C(=O)N4CCN(c5ccccc5)CC4)CC3)c(C)o2)cc1`, the inhibition is reported as 50.7%.
With `COc1ccccc1NC(=O)CC1S/C(=N/N=C2\CCCc3ccccc32)NC1=O` (stereo not drawn) the inhibition was 2.48%.
Compound `O=c1cc(-c2ccccc2Cl)oc2ccc([N+](=O)[O-])c(O)c12` has an inhibition of 45.3%.
Work on `Cc1ccc(Nc2nc(-c3c(C)nc4ccccn34)cs2)cc1` yielded an inhibition of 68.5%.
With `Cc1ccc(-c2cc(C(F)F)n3ncc(C(=O)N4CCc5ccccc5C4)c3n2)cc1` the inhibition was 45.6%.
For `O=P(OC1CCCCC1)(OC1CCCCC1)C(O)c1c(Cl)cccc1Cl` (stereo not drawn), the inhibition was 31%.
In the case of `C=CCNC(=S)N/N=C/c1ccc(N(CC)Cc2ccccc2)cc1`, the inhibition is reported as 45.3%.
`COC(=O)C1=C(C)NC2=C(C(=O)CC(C)(C)C2)C1c1cn(Cc2ccc(Br)cc2)nc1-c1ccccc1` (stereo not drawn) showed an inhibition of 13.8%.
`CN1CCN(c2nc(-c3ccccc3)nc(-c3ccccc3)c2C#N)CC1` gave an inhibition of 66.2%.
Compound `O=C1c2cnc3nc(SCc4ccccc4)nn3c2CC2c3ccccc3CCN12` (stereo not drawn) has an inhibition of 57.8%.
`CC(C)(C)c1ccc(C(=O)Nc2cccc([N+](=O)[O-])c2)cc1` gave an inhibition of 28.6%.
For `Cc1cccc(NC(=O)c2ccc(N3CCCCC3)c([N+](=O)[O-])c2)n1`, the inhibition was 12.8%.
Compound `O=C1CC(N(CCc2ccccc2)C(=S)Nc2ccccc2)C(=O)N1c1ccc(Br)cc1` (stereo not drawn) has an inhibition of 65.3%.
In the case of `CC(C)CCNC(=O)CN(CC1CCCO1)C(=O)CCC(=O)Nc1ccccn1` (stereo not drawn), the inhibition is reported as -5.59%.
With `CCC1=[N+](C)c2cccc3cccc(c23)N1C` the inhibition was 41.1%.
Work on `Cn1c(/C=C/N2CCOCC2)c(C(=O)c2ccc(Br)cc2)c(=O)n(C)c1=O` yielded an inhibition of 14.9%.
Work on `O=C(c1cccs1)N1N=C(c2ccccc2)CC1c1ccccc1` (stereo not drawn) yielded an inhibition of 48.2%.
In the case of `CCOC(=O)c1cc2ccc3ccccc3c2s1`, the inhibition is reported as 30.1%.
For `CC(C)=CCC/C(C)=C/COc1ccc2ccc(=O)oc2c1`, the inhibition was 27%.
Compound `CCn1cc(C(=O)N2CCc3ccccc32)c(=O)c2cc(S(=O)(=O)N(C)C3CCCCC3)ccc21` has an inhibition of -18.9%.
`Cc1cc(N2CCN(C(=O)c3ccco3)CC2)n2nc(C)c(-c3ccccc3)c2n1` showed an inhibition of 40.1%.
In the case of `CCOC(=O)c1cc(-c2cccs2)nc2c1c(C)nn2-c1ccccn1`, the inhibition is reported as 56.7%.
`CCOC(=O)c1c(NC(=O)CSc2nnc(N)s2)sc(C)c1-c1ccc(C)cc1` gave an inhibition of 61.9%.
In the case of `COc1ccc(NC(=O)Nc2cccc([N+](=O)[O-])c2)cc1Cl`, the inhibition is reported as 12.9%.
In the case of `COc1cc(-c2nc3ccc4ccccc4c3c3c2CCC3)cc(OC)c1O`, the inhibition is reported as 96.5%.
With `COC(=O)c1c(NC(=O)CN2CCC3(O)CCCCC3C2c2ccccc2OC)sc(C)c1C` (stereo not drawn) the inhibition was 10.7%.
For `O=C(CNCc1ccccc1Cl)Nc1ccccc1N1CCCCC1`, the inhibition was 15%.
For `COC(=O)Cn1nc(-c2ccc(C)cc2)c2ccccc2c1=O`, the inhibition was 61.5%.
`CCn1c(=O)c(C(=O)Nc2ncccc2C)c(O)c2ccccc21` gave an inhibition of 46.7%.
For `Cc1cccc(C)c1-n1cccc1/C=C1\SC(=S)N(c2cccc(C(=O)O)c2)C1=O`, the inhibition was 79.9%.
For `CC(=O)c1ccc(-n2c(C)ccc2-c2ccccc2)cc1`, the inhibition was 42.8%.
Compound `CCC(CC)C(=O)c1c[nH]c(C(=O)NCCCN2CCOCC2)c1` has an inhibition of 0.96%.
For `COc1cc(C)c(NC(=S)Nc2ccc(Cl)c(Cl)c2)cc1OC`, the inhibition was 66.7%.
Compound `O=C(COC(=O)c1ccccc1C(=O)c1ccc(Cl)c([N+](=O)[O-])c1)NC1CCCCCC1` has an inhibition of -2.04%.
Compound `CCOc1ccc(NC(=S)N(CCc2c(C)[nH]c3ccc(C)cc23)Cc2ccco2)cc1` has an inhibition of -0.93%.
In the case of `COC(=O)C1=C(CSc2nc3ccccc3o2)NC(=O)NC1c1cc(C)ccc1C` (stereo not drawn), the inhibition is reported as 9.04%.
In the case of `CC1=CN2C(=N)/C(=C/c3ccc([N+](=O)[O-])o3)C(=O)N=C2S1`, the inhibition is reported as 66.7%.
Work on `Cc1c(N2C(=O)c3cccc4cccc(c34)C2=O)c(=O)n(-c2ccccc2)n1C` yielded an inhibition of 6.58%.
In the case of `NNC(=O)c1cccc(COc2ccc3c(c2)CCC3)c1`, the inhibition is reported as 57.4%.
Work on `CCNC(=S)N(CCc1c(C)[nH]c2ccc(C)cc12)Cc1cccs1` yielded an inhibition of 23.4%.
Work on `COc1ccc(CCNC(=S)Nc2ccc(C)cc2C)cc1` yielded an inhibition of 49.5%.
`COC(=O)CNC(c1ccccc1)c1cc(Cl)ccc1NC(=O)c1cccc(Cl)c1` (stereo not drawn) showed an inhibition of 8.51%.
For `Cc1ccc(-c2nnc3n2CCCCC3)cc1`, the inhibition was 69.4%.
Work on `CCCCCCc1cc2cc(S(=O)(=O)c3ccc(Cl)cc3)c(=O)oc2cc1O` yielded an inhibition of 85.1%.
`Fc1ccc(CNC(=S)NC2CCCCCC2)cc1` gave an inhibition of 63.2%.
